{"source": "PubChem BioAssay AID686978", "about": "(National Center for Advancing Translational Sciences (NCATS), 2013)", "note": "“And” between values parts separate entries of the source, which are not always exact repeats. Equal entries are not always repeated. In all, about 420,000 compounds went through this assay and about 64,000 (15%) were called active. The shares of active, inactive and inconclusive entries below differ from those in the screen. The call rests on the fitted dose curve; in most records, active means well fitted inhibition curve with a large enough effect; inconclusive means small, poorly fitted or top-dose-only effect; inactive means flat fitted curve, though single readings scatter. Where the call is inconclusive, the potency comes from a doubtful curve fit."}
{"experiment": "qHTS for Inhibitors of human tyrosyl-DNA phosphodiesterase 1 (TDP1): qHTS in cells in absence of CPT; further: nearly all actives have a fitted effect of over 55% in size; further: potency means the concentration at half of the fitted maximal effect; tags describe the fitted curve by direction and shape; on activity change, negative = growth inhibition: on the % scale 0 is the no-effect control and ±100 the full control effect", "conditions": "DT40 Tdp1-/- hTDP1 cells, no CPT, ATP luminescence, 48 h; activity change, negative = growth inhibition: at 46.2 µM (top of the series) unless noted", "outline": "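Camptothecin absent (DMSO only). Human TDP1-complemented DT40 knockout cells, 400 cells/well, 37 °C for minimum 48 hr; ATP measured via CellTiter-Glo, 30 min dark incubation, luminescence.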"}
{"molecule": "CCOc1ccc(-c2nnc(SCC(=O)NC(C)CC)nc2-c2ccc(OCC)c(OC)c2)cc1OC", "note": "(centres undefined)", "Potency": "inconclusive: 20.6 µM [inhibitor, single point]"}
{"molecule": "CCCCC[C@H](O)CC(=O)CCc1ccc(O)c(OC)c1", "Potency": "inconclusive: 16.4 µM [inhibitor, single point] and inconclusive: 31.6 µM [inhibitor, single point]"}
{"molecule": "CC(=O)c1ccccc1NC(=O)C1CC(=O)N(c2ccc3c(c2)OCCO3)C1", "note": "(centres undefined)", "Potency": "inactive"}
{"molecule": "CCOc1cc(C2c3c(oc4cc(C)c(Cl)cc4c3=O)C(=O)N2Cc2ccco2)ccc1O", "note": "(centres undefined)", "Potency": "active: 16.4 µM"}
{"molecule": "Clc1ccc(N=NN2CCOCC2)cc1", "Potency": "inactive"}
{"molecule": "CCOC(=O)N/N=C/c1ccc(C)o1", "Potency": "inactive"}
{"molecule": "COc1cc2c(cc1OC)C(c1c[nH]c3ccccc13)NCC2", "note": "(centres undefined)", "Potency": "inconclusive: 2.31 µM [inhibitor, partial curve, poor fit]"}
{"molecule": "COc1cc2c(cc1OC)C(COc1ccc(F)cc1)NCC2", "note": "(centres undefined)", "Potency": "inconclusive: 29.1 µM [inhibitor, single point]"}
{"molecule": "C=CCOc1c(Br)cc(CNc2ccc3[nH]c(=O)[nH]c3c2)cc1OCC", "Potency": "inconclusive: 29.1 µM [inhibitor, single point]"}
{"molecule": "CCOc1ccccc1NC(=O)C(OC(=O)c1ccccc1NS(=O)(=O)c1cccs1)c1ccccc1", "note": "(centres undefined)", "Potency": "inconclusive: 32.6 µM [inhibitor, single point]"}
{"molecule": "CCOc1cc(/C=N/NC(=O)CSc2nncn2C)ccc1OCc1cccc(C)c1", "Potency": "inconclusive: 29.1 µM [inhibitor, single point]"}
{"molecule": "CC(=O)Nc1nonc1-c1nnc(SCC(=O)Nc2cccc(C)c2C)n1-c1ccccc1", "Potency": "active: 25.9 µM"}
{"molecule": "COc1ccccc1NS(=O)(=O)c1ccc(C(=O)NCc2ccco2)cc1", "Potency": "inconclusive: 10.3 µM [inhibitor, partial curve]"}
{"molecule": "COc1ccc(Cn2cc(C(=O)c3ccc(F)cc3)c(=O)c3cc4c(cc32)OCCO4)cc1", "Potency": "inconclusive: 18.4 µM [inhibitor, single point]"}
{"molecule": "COC(=O)C(CCCCNC(=O)c1ccc([N+](=O)[O-])cc1)NC(=O)c1ccc([N+](=O)[O-])cc1", "note": "(centres undefined)", "activity change, negative = growth inhibition": "inconclusive: -32.9% [inhibitor]"}
{"molecule": "CCC1(C)Cc2c(sc3nc(SC)nc(NCCN(C)C)c23)CO1", "note": "(centres undefined)", "Potency": "inconclusive: 29.1 µM [inhibitor, single point]"}
{"molecule": "O=C(Nc1ccc(Cl)c(Cl)c1)c1ccc(Cn2cc(Cl)cn2)cc1", "Potency": "inconclusive: 20.6 µM [inhibitor, single point]"}
{"molecule": "Cc1ccc(C(O)c2ncc(-c3cccc(F)c3)[nH]2)cc1", "note": "(centres undefined)", "Potency": "inactive"}
{"molecule": "O=C(O)COc1ccccc1/C=N/NC(=O)/C(=C\\c1ccc2c(c1)OCO2)NC(=O)c1ccccc1", "activity change, negative = growth inhibition": "inconclusive: -20.9% [inhibitor]"}
{"molecule": "CCCCCCCCC(=O)NNC(=O)c1c(O)c2ccccc2n(CCC)c1=O", "Potency": "inconclusive: 29.1 µM [inhibitor, single point]"}
{"molecule": "CCCCNc1ccc(-c2nc(-c3ccncc3)no2)cc1[N+](=O)[O-]", "Potency": "inconclusive: 7.31 µM [inhibitor, partial curve, poor fit]"}
{"molecule": "O=C(N/N=C/c1ccc2c(c1)OCO2)c1cccc2ccccc12", "Potency": "active: 3.26 µM"}
{"molecule": "CCOC(=O)N1CCN(C(=O)COC(=O)CNC(=O)c2ccc(OCC)c(OCC)c2)CC1", "Potency": "inactive"}
{"molecule": "CCCCc1nn2c(=O)cc(COC(=O)c3ccco3)nc2s1", "Potency": "inactive"}
{"molecule": "CCOC(=O)c1ccc(NC(=O)CN(c2ccc(C)cc2)S(=O)(=O)c2c(C)n[nH]c2C)cc1", "Potency": "inconclusive: 23.1 µM [inhibitor, single point]"}
{"molecule": "CCCN1CNc2c(c(=O)[nH]c(=S)n2CCc2ccc(C)cc2C)C1", "Potency": "inconclusive: 22.4 µM [inhibitor, single point]"}
{"molecule": "COc1ccc(-c2nc(CCNC(=O)c3c(F)cccc3Cl)cs2)cc1", "Potency": "inconclusive: 16.4 µM [inhibitor, single point]"}
{"molecule": "CC1CCN(C(=O)Cn2cc(SCC(=O)Nc3ccccc3C(F)(F)F)c3ccccc32)CC1", "Potency": "active: 20.6 µM"}
{"molecule": "CCC1(CC)NC(=O)N(CC(=O)OCC(=O)c2ccccc2OC)C1=O", "Potency": "inactive"}
{"molecule": "COc1ccc(OC)c(NC(=O)COC(=O)CCS(=O)(=O)c2ccc(Cl)cc2)c1", "Potency": "inactive"}
{"molecule": "CCOc1ccccc1C(=O)N[C@H](C(=O)Nc1cc(S(=O)(=O)N(C)C)ccc1OC)C(C)C", "activity change, negative = growth inhibition": "inconclusive: -33.8% [inhibitor]"}
{"molecule": "COc1cccc(C(O)c2nc3ccccc3n2C)c1", "note": "(centres undefined)", "Potency": "inactive"}
{"molecule": "COC(=O)c1ccc(NC(=O)c2c(Br)cnn2C)cc1", "Potency": "inactive"}
{"molecule": "CCCc1cc(=O)[nH]c(Nc2ccc(OC)c(Cl)c2)n1", "Potency": "inconclusive: 29.1 µM [inhibitor, single point]"}
{"molecule": "Cc1ccc(C)c(Cn2c3ccccc3c3cnn(CC(=O)NCc4ccccn4)c(=O)c32)c1", "Potency": "inconclusive: 29.1 µM [inhibitor, single point]"}
{"molecule": "Cc1cccc(NC(=O)C2CCCN(S(=O)(=O)c3c(C)n[nH]c3C)C2)c1", "note": "(centres undefined)", "Potency": "inconclusive: 23.1 µM [inhibitor, single point]"}
{"molecule": "C=CS(=O)(=O)N(Cc1ccc(Cl)c(Cl)c1)C[C@@H](O)CO", "Potency": "active: 20.6 µM"}
{"molecule": "O=C(C[n+]1ccccc1)N/N=C/c1cccc(Cl)c1Cl", "Potency": "inconclusive: 16.4 µM [inhibitor, partial curve, poor fit]"}
{"molecule": "O=C1C(Cc2ccccc2)Nc2ncnc(N3CCN(c4ccccc4)CC3)c2N1Cc1ccccc1", "note": "(centres undefined)", "Potency": "active: 18.4 µM"}
{"molecule": "CCCc1cc(=O)[nH]c(N/N=C/C=C\\c2ccccc2)n1", "Potency": "inconclusive: 23.1 µM [inhibitor, single point]"}
{"molecule": "N#CCCNC(=O)Cn1c(COc2ccc(Cl)cc2)nc2ccccc21", "Potency": "inconclusive: 18.4 µM [inhibitor, single point]"}
{"molecule": "Cc1cc(Br)ccc1NC(=O)CN(C)C(=O)CNC(=O)Cc1ccccc1", "Potency": "inconclusive: 29.1 µM [inhibitor, single point]"}
{"molecule": "Cc1ccccc1Nc1c(-c2cccnc2)nc2cccc(C)n12", "Potency": "active: 20.6 µM"}
{"molecule": "CNC1C(O)C(O[C@H]2C(O)[C@@H](OC3OC(CN)=CCC3N)[C@H](N)C[C@@H]2N)OC[C@]1(C)O", "note": "(some centres undefined)", "Potency": "inactive"}
